Screen size: about 360,000 compounds; about 25,000 (6.9%) were called active. This list was built around the results that the source calls inconclusive (neither active nor inactive); the mix of calls is not that of the screen. Calls come from the whole dose curve; as a rule, active = well fitted inhibition curve with a large enough effect; inconclusive = small, poorly fitted or top-dose-only effect; inactive = flat fitted curve, though single readings scatter. Potencies beside an inconclusive call are fits to weak or partial responses and may not hold up.
biological target: Luciferin 4-monooxygenase (Photinus pyralis) (UniProt P08659); test: qHTS profiling assay for firefly luciferase inhibitor/activator using purifed enzyme and Km concentrations of substrates (counterscreen for miR-21 project); settings: purified FLuc, luminescence inhibition; activity change, negative = inhibition: at 57.5 µM (top of the series); note: nearly all actives have a fitted effect of over 55% in size;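 for activity change, negative = inhibition: plate controls were vehicle for no effect and reference inhibitor for full effect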
Chain of UniProt P08659 (P08659 whole entry, looked up): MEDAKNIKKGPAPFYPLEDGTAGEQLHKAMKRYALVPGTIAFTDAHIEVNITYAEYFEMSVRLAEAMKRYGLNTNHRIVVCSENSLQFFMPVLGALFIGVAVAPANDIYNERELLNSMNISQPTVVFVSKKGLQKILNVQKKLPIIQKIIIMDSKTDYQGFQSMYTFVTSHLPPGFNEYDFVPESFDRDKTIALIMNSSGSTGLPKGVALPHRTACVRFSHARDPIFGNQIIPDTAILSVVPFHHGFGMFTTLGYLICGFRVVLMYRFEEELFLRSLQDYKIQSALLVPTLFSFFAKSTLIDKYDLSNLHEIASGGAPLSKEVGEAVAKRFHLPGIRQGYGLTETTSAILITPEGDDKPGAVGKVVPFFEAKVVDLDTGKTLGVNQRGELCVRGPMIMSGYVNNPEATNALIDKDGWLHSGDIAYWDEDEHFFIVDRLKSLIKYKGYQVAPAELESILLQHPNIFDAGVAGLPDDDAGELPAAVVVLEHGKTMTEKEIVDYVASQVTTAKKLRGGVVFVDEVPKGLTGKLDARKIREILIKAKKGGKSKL
Procedure, shortened: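 Purified P. pyralis luciferase (10nM final) with 10uM D-luciferin and 10uM ATP (Km levels) in 50mM Tris acetate pH 7.5, 10mM Mg acetate, 0.01% Tween-20, 0.05% BSA; qHTS 6-point titration, ~60 µM downward; luminescence read.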
Potency is the fitted concentration of half-maximal effect; tags give direction and shape of the fitted curve.

| Structure (SMILES) | Potency | activity change, negative = inhibition |
| --- | --- | --- |
| CCOc1ccc(NC(=O)c2cccnc2C(=O)O)cc1 | inconclusive: 21.3 µM [inhibitor, partial curve] |  |
| CCC1CCc2c(sc(NC(C)=O)c2C#N)C1 (stereo not given) | inconclusive: 23.9 µM [inhibitor, partial curve, poor fit] |  |
| COCCCNCCCCOc1ccc(OCc2ccccc2)cc1 | inconclusive: 21.3 µM [inhibitor, single point] |  |
| CC(=NC1CC1)c1c(-c2ccccc2)[nH]n(-c2nc3ccccc3s2)c1=O | inconclusive: 23.9 µM [inhibitor, single point] |  |
| O=C(Nc1cccc(C(F)(F)F)c1)Nc1cccs1 | active: 12 µM |  |
| COc1ccc(-c2cc3ccc(O)cc3oc2=O)cc1OC | inconclusive: 16.9 µM [inhibitor, partial curve] |  |
| CCCCN(C(=O)c1ccc(S(=O)(=O)N2CCCC2)cc1)C1CCS(=O)(=O)C1 (stereo not given) |  | inactive: -1.86% |
| CCCCN(CC)C(=O)C1CCCN(c2ncnc3c2nc2n3CCCCC2)C1 (stereo not given) |  | inactive: 0.428% |
| CCS(=O)(=O)C1=NSC2=NC(=O)/C(=C\c3ccc(OC(=O)c4ccco4)cc3)C(=N)N21 | inconclusive: 26.9 µM [inhibitor, single point] |  |
| O=C(Nc1ccc2c(c1)OCO2)c1ccc(CN2CCOCC2)cc1 | active: 15.1 µM |  |
| COc1ccccc1C(=O)NNC(=O)c1ccc(F)cc1 | inconclusive: 19 µM [inhibitor, partial curve] |  |
| Cc1cccc(NC(=O)CN2C(=O)CCn3nc(-c4cccn4C)cc32)c1C |  | inactive: 2.95% |
| CCOC(=O)C1CCCN(C(=O)c2ccc3c(c2)N(Cc2ccc(Cl)cc2)C(=O)c2ccccc2S3=O)C1 (stereo not given) |  | inactive: -1.33% |
| O=C(Nc1c2c(nn1-c1ccc(F)cc1)CS(=O)(=O)C2)c1ccc2c(c1)OCO2 |  | inactive: -0.588% |
| C[C@@H]1CN(C2CCN(Cc3nc(CC4CC4)no3)CC2)C[C@H](C)O1 | inconclusive: 37.9 µM [inhibitor, partial curve, poor fit] |  |
| O=C(O)CC1(CC(=O)Nc2cc3ccccc3cn2)CCCCC1 | inconclusive: 42.6 µM [inhibitor, partial curve, poor fit] |  |
| CCN1CCN(c2cc(C)c3cc(NC(=O)c4cnccn4)ccc3n2)CC1 | inconclusive: 23.9 µM [inhibitor, partial curve, poor fit] |  |
| CCCCc1c(C)nc2ccccc2c1SCCC(=O)O | inconclusive: 37.9 µM [inhibitor, partial curve, poor fit] |  |
| O=C(NC(=S)Nc1cc(S(=O)(=O)N2CCOCC2)ccc1O)c1ccco1 | inconclusive: 37.9 µM [inhibitor, partial curve, poor fit] |  |
| O=C(Nc1ccc2c(c1)OCO2)c1ccc(NC2CC2)c([N+](=O)[O-])c1 | inconclusive: 30.1 µM [inhibitor, partial curve, poor fit] |  |
| COc1ccccc1C(=O)Nc1ccc(OCC(=O)N2CCCCC2C)cc1 (stereo not given) | active: 12 µM |  |
| Nc1n[nH]c(N)c1N=Nc1ccccc1 | inconclusive: 21.3 µM [inhibitor, partial curve, poor fit] |  |
| COc1ccc(C(=O)NNC(=O)c2ccc3ccccc3c2O)cc1 | inconclusive: 33.8 µM [inhibitor, single point] |  |

| Structure (SMILES) | Potency | activity change, negative = inhibition |
| --- | --- | --- |
| NS(=O)(=O)c1ccc(N/C=C\C(=O)c2cccc3ccccc23)cc1 | inconclusive: 37.9 µM [inhibitor, partial curve, poor fit] |  |
| O=C(COc1ccccc1/C=C1\SC(=O)NC1=O)Nc1ccc(F)cc1 | inconclusive: 30.1 µM [inhibitor, partial curve, poor fit] |  |
| CCCOc1ccc(C(=O)Nc2ccc(S(=O)(=O)NC3=NCCCCC3)cc2)cc1 | inconclusive: 37.9 µM [inhibitor, single point] |  |
| COc1ccc(C(=O)Nc2cnc3ccccn3c2=O)cc1 | active: 16.9 µM |  |
| CCc1ccc(CN2C(=O)c3ccccc3C2C(=O)NC2CCCCCC2)cc1 (stereo not given) | inconclusive: 12 µM [inhibitor, partial curve, poor fit] |  |
| COc1ccccc1OCc1nc2ccccc2[nH]1 | active: 10.7 µM |  |
| CCc1c(SCCC(=O)O)nc2ccccc2c1C | inconclusive: 21.3 µM [inhibitor, single point] |  |
| CN(C)c1ccc(C(=O)Nc2cccc(S(=O)(=O)N3CCCC3)c2)cc1 | active: 1.69 µM |  |
| C=CCOc1ccc(Cl)cc1CNC1CCCC1 |  | inactive: 1.27% |
| CCCCCN(C(=O)CCC(=O)OCC(=O)c1ccc(CCC)cc1)c1c(N)n(CCCC)c(=O)[nH]c1=O | active: 2.69 µM |  |
| O=C(Nc1nc2ccc(F)cc2s1)C1CCCO1 (stereo not given) | active: 6.75 µM |  |
| COc1ccc(C(=O)C2CC2c2ccc3c(c2)OCO3)cc1 (stereo not given) | inconclusive: 37.9 µM [inhibitor, partial curve, poor fit] |  |
| O=C(O)c1cc(-c2cc3ccccc3o2)nn1-c1ccccc1 | inconclusive: 19 µM [inhibitor, partial curve] |  |
| Nc1ccc(N)c(C(=O)O)c1 | inconclusive: 21.3 µM [inhibitor, partial curve, poor fit] |  |
| Nc1ccc2nc(C(F)(F)F)[nH]c2c1 |  | inactive: -2.08% |
| Cc1c(NC(=O)CN2CCN(c3ccc(O)cc3)CC2)c(=O)n(-c2ccccc2)n1C |  | inactive: -4.78% |
| CCOc1ccccc1NC(=O)CCNS(=O)(=O)c1cccc2nsnc12 |  | inactive: 1.08% |
| O=C(CNC(=O)c1ccc2c(c1)OCCO2)N/N=C/c1ccc([N+](=O)[O-])cc1 |  | inactive: -0.185% |
| O=C(Nc1ccc(N2CCOCC2)c(Cl)c1)c1ccc2c(c1)OCCO2 | inconclusive: 15.1 µM [inhibitor, partial curve, poor fit] |  |
| COc1ccc(/C=N/Nc2nc(-c3cccc(S(=O)(=O)N4CCCC4)c3)cs2)cc1OC | inconclusive: 21.3 µM [inhibitor, partial curve, poor fit] |  |
| Cc1ccc(NCC(=O)N/N=C/c2c[nH]c3ccccc23)cc1 | inconclusive: 19 µM [inhibitor, partial curve] |  |
| O=C1CN(C(=O)CSc2nnc(Nc3ccccc3)s2)c2ccccc2N1 | inconclusive: 23.9 µM [inhibitor, partial curve] |  |

From PubChem BioAssay AID588342 (National Center for Advancing Translational Sciences (NCATS), 2011)
